Test results reported in PubChem BioAssay AID2147 (National Center for Advancing Translational Sciences (NCATS), 2009).
Among all 230,000 compounds or so, about 3,600 (1.6%) were called active. The inconclusive results got no clear call from the source; some entries with a clear call stand among them for comparison. Calls come from the whole dose curve; as a rule, active = well fitted inhibition curve with a large enough effect (not every such curve was filed as active); inconclusive = small, poorly fitted or top-dose-only effect, or another doubt; inactive = no such curve, though single readings can be large or run the other way. Where the call is inconclusive, the potency comes from a doubtful curve fit.

target: Lysine-specific demethylase 4E (Homo sapiens) (UniProt B2RXH2); assay: qHTS Assay for Inhibitors of Human Jumonji Domain Containing 2E (JMJD2E); details: JMJD2E catalytic domain, FDH-coupled NADH fluorescence (FDH is formaldehyde dehydrogenase); series mostly up to 57.1 µM; activity change, negative = inhibition: at the top concentration
Note: nearly all actives have a fitted effect of over 50% in size.
Potency is the fitted concentration of half-maximal effect; tags give direction and shape of the fitted curve.
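Throughout, for activity change, negative = inhibition: 0% = wells with enzyme and -100% = buffer wells without enzyme.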

UniProt B2RXH2, sequence (B2RXH2 whole entry, looked up, the tested form may be a part): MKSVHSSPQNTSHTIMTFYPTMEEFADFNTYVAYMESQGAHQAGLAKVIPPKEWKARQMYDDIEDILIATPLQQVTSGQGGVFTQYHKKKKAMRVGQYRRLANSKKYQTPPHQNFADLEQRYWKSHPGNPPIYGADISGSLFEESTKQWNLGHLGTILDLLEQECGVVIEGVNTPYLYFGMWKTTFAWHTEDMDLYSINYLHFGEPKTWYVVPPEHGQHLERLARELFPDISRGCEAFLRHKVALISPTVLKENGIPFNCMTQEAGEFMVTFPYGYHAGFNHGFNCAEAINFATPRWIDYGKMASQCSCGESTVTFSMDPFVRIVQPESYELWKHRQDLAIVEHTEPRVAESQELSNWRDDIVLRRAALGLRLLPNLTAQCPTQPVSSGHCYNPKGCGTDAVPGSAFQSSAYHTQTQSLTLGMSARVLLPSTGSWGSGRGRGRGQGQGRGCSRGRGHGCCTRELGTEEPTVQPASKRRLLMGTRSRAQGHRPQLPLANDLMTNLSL

**Q.** With COc1ccc(C(C)=O)cc1CSc1nncn1-c1ccccc1 as the molecule, how does the “activity change, negative = inhibition” value read?
**A.** inactive: -2.89%

**Q.** CCN(CC)CCNC(=O)c1ccc(N2CCCCC2)c(NS(=O)(=O)c2ccc(C)cc2)c1 was tested. Which Potency did it give?
**A.** inconclusive: 39.8 µM [inhibitor, single point]

**Q.** How did the “activity change, negative = inhibition” value turn out when O=[N+]([O-])c1ccc(-c2ccc(/C=N/Nc3nc(NCc4ccccc4)nc(N4CCOCC4)n3)o2)cc1 was run?
**A.** inactive: -4.22%

**Q.** Clc1c(-c2nnc3n2CCC3)sc2ccccc12 was tested. Which “activity change, negative = inhibition” value did it give?
**A.** inactive: 6.99%

**Q.** Which Potency does the source give for COc1cc2c(C)c3c4c(cc(OC)c(OC)c4c2cc1OC)CCN3C here?
**A.** inconclusive: 35.5 µM [inhibitor, partial curve]

**Q.** Which Potency does the source give for C/C=C\C=C\C(=O)Nc1cccc(C2=NOC3(C2)C[C@H](C(N)=O)N(C(=O)c2ccccc2C(=O)c2ccccc2)C3)c1 (stereo not given in full) here?
**A.** inconclusive: 28.2 µM [inhibitor, single point]

**Q.** COc1ccnc(Nc2cccc(C)c2)c1C#N was tested. Which “activity change, negative = inhibition” value did it give?
**A.** inactive: -7.37%

**Q.** With O/N=C1\CCC\C1=C/c1ccco1 as the molecule, how does the “activity change, negative = inhibition” value read?
**A.** inactive: -6.59%

**Q.** Which Potency does the source give for CN(C)CCN(C(=O)c1ccccc1Cl)c1nc2c(Cl)cccc2s1 here?
**A.** inconclusive: 35.5 µM [inhibitor, single point]

**Q.** Which “activity change, negative = inhibition” value does the source give for COc1ccc(C(=O)/C(C#N)=N/Nc2cccc([N+](=O)[O-])c2)cc1 here?
**A.** inactive: 2.89%

**Q.** For C=CCn1c(CCC(O)COCCC)n[nH]c1=S (stereo not given), which Potency is on record?
**A.** inconclusive: 31.6 µM [inhibitor, partial curve]

**Q.** Which “activity change, negative = inhibition” value does the source give for CN(C)c1ccc(NC(=O)CCCc2ccccc2)cc1 here?
**A.** inactive: -3.25%

**Q.** Which Potency does the source give for CC(NCc1ccc(S(N)(=O)=O)cc1)C(=O)N1c2ccccc2CC1C (stereo not given) here?
**A.** inconclusive: 25.1 µM [inhibitor, single point]

**Q.** With COc1ccc(OC)c(-n2nnnc2SCC(=O)N2CCN(C(=O)c3ccco3)CC2)c1 as the molecule, how does the “activity change, negative = inhibition” value read?
**A.** inactive: -8.24%

**Q.** For CCOc1ccc2nc(SCC(=O)NCc3ccc(OC)c(OC)c3)[nH]c2c1, which “activity change, negative = inhibition” value is on record?
**A.** inactive: 4.01%

**Q.** S=c1[nH]nc(-c2cnccn2)n1-c1ccccc1 was tested. Which Potency did it give?
**A.** inconclusive: 28.2 µM [inhibitor, single point]

**Q.** COc1cccc(/C(O)=C/C(=O)C(=O)Nc2ccc(S(=O)(=O)NC(C)=O)cc2)c1 was tested. Which Potency did it give?
**A.** inconclusive: 25.1 µM [inhibitor, single point]

**Q.** How did the “activity change, negative = inhibition” value turn out when N#C/C(=C\c1ccccc1OCc1ccc(C(=O)O)cc1)C(=O)Nc1ccc(O)cc1 was run?
**A.** inactive: -1.08%

**Q.** How did the “activity change, negative = inhibition” value turn out when CCc1nccn1Cc1cc(C=O)ccc1OC was run?
**A.** inactive: -17.7%

**Q.** How did the Potency turn out when Oc1ccc2ccccc2c1CN1CCN(c2ccccc2)CC1 was run?
**A.** inconclusive: 31.6 µM [inhibitor, partial curve]

**Q.** How did the Potency turn out when COC(=O)c1ccc(C(=O)OC)c(NC(=O)COC(=O)CC2CC3CCC2C3)c1 (stereo not given) was run?
**A.** inconclusive: 31.6 µM [inhibitor, single point]

**Q.** O=S(=O)(c1ccc(-c2nnc(SCc3ccccc3)o2)cc1)N1CCCC1 was tested. Which “activity change, negative = inhibition” value did it give?
**A.** inactive: -20.1%

**Q.** Which Potency does the source give for CCOc1ccc2nc(NC(=O)COc3ccc(N(C)S(=O)(=O)c4ccc(C)cc4)cc3)sc2c1 here?
**A.** inconclusive: 0.794 µM [inhibitor, single point]

**Q.** For CCCCNC(=O)c1ccc(Cn2c(=S)[nH]c3c([nH]c4ccc(OC)cc43)c2=O)cc1, which Potency is on record?
**A.** inconclusive: 39.8 µM [inhibitor, single point]

**Q.** With CCOc1ccc(-c2cc(C(=O)NCC3CCCO3)c3ccccc3n2)cc1 (stereo not given) as the molecule, how does the Potency read?
**A.** inconclusive: 28.2 µM [inhibitor, partial curve]

**Q.** For Cc1cc(C(=O)O)sc1C, which Potency is on record?
**A.** inconclusive: 35.5 µM [inhibitor, single point]

**Q.** O=C(O)c1cc(N2C(=O)C3C4C=CC(C4)C3C2=O)ccc1NCc1cccnc1 (stereo not given) was tested. Which Potency did it give?
**A.** inconclusive: 31.6 µM [inhibitor, partial curve]

**Q.** With O=C(NCC1CCCO1)c1ccc(COc2ccc(F)cc2)o1 (stereo not given) as the molecule, how does the “activity change, negative = inhibition” value read?
**A.** inactive: -6.14%

**Q.** With CCCn1c(/N=C/c2c[nH]c3ccccc23)nc2ccccc21 as the molecule, how does the “activity change, negative = inhibition” value read?
**A.** inactive: -1.03%

**Q.** For Cc1cccc(CNc2ncnc3ccc(-c4ccc5c(c4)OCO5)cc23)c1, which Potency is on record?
**A.** inconclusive: 28.2 µM [inhibitor, partial curve]

**Q.** How did the “activity change, negative = inhibition” value turn out when CC1Cc2nc(SCC(=O)Nc3nc4ccccc4s3)n(C)c(=O)c2S1 (stereo not given) was run?
**A.** inactive: 4.31%

**Q.** Which Potency does the source give for Fc1ccc(-c2csc(/C=C/c3ccc4c(c3)OCO4)n2)cc1 here?
**A.** inconclusive: 28.2 µM [inhibitor, partial curve]

**Q.** O=C(COc1ccccc1)Nc1cccc2c1CCCC2 was tested. Which Potency did it give?
**A.** inconclusive: 39.8 µM [inhibitor, single point]

**Q.** Which Potency does the source give for Fc1ccc2[nH]c3c(N4CCN(Cc5ccc6c(c5)OCO6)CC4)ncnc3c2c1 here?
**A.** inconclusive: 35.5 µM [inhibitor, partial curve]

**Q.** How did the Potency turn out when COc1ccccc1/C=N/n1c(N)c(S(=O)(=O)c2cccs2)c2nc3ccccc3nc21 was run?
**A.** inconclusive: 14.1 µM [inhibitor, partial curve]

**Q.** Which Potency does the source give for O=C(Nc1ccc(N2CCCC2)c(S(=O)(=O)Nc2cccc(C(F)(F)F)c2)c1)c1cccs1 here?
**A.** inconclusive: 28.2 µM [inhibitor, single point]

**Q.** How did the “activity change, negative = inhibition” value turn out when COc1ccc(-n2c(SCC(=O)Nc3nc(C)cs3)nnc2-c2ccoc2C)cc1 was run?
**A.** inactive: -10.2%

**Q.** For COc1ccccc1CN1CC(C(=O)N2CCN(c3ccc(F)cc3)CC2)CC1=O (stereo not given), which “activity change, negative = inhibition” value is on record?
**A.** inactive: -0.412%

**Q.** How did the Potency turn out when Cc1c(C(=O)Nc2ccc3c(c2)OCCO3)sc2nc(-c3ccccc3)cn12 was run?
**A.** inconclusive: 39.8 µM [inhibitor, single point]

**Q.** Cc1cccc(N2C(=O)C(O)=C(C(=O)c3cccs3)C2c2cccc(Oc3ccccc3)c2)n1 (stereo not given) was tested. Which Potency did it give?
**A.** inconclusive: 31.6 µM [inhibitor, single point]

**Q.** For Cc1cccc(N2CCN(C(=O)c3ccc4nc(-c5ccco5)c(-c5ccco5)nc4c3)CC2C)c1 (stereo not given), which Potency is on record?
**A.** inconclusive: 31.6 µM [inhibitor, single point]

**Q.** For O=c1[nH]c2cc3c(cc2cc1CN(Cc1ccc2c(c1)OCO2)Cc1nnnn1CC1CCCO1)OCO3 (stereo not given), which Potency is on record?
**A.** inconclusive: 31.6 µM [inhibitor, partial curve]

**Q.** How did the “activity change, negative = inhibition” value turn out when COC(=O)C1=NNC2C(=O)N(c3ccc(C)cc3)C(=O)C12 (stereo not given) was run?
**A.** inactive: -1%

**Q.** With CCn1c(=O)c(=O)[nH]c2cc(C(=O)NC3CC3)ccc21 as the molecule, how does the Potency read?
**A.** inconclusive: 39.8 µM [inhibitor, single point]

**Q.** O=C(O)c1cc(N2N=C(C(F)(F)F)/C(=C/C=C/c3ccco3)C2=O)ccc1Cl was tested. Which “activity change, negative = inhibition” value did it give?
**A.** inactive: 2.52%

**Q.** O=C(NCc1ccccc1)C1CCCN(c2nc3ccsc3c(=O)s2)C1 (stereo not given) was tested. Which Potency did it give?
**A.** inconclusive: 31.6 µM [inhibitor, partial curve]

**Q.** With COc1cccc(C(=O)N2CCN(Cc3ccccc3[N+](=O)[O-])CC2)c1 as the molecule, how does the Potency read?
**A.** inconclusive: 35.5 µM [inhibitor, single point]

**Q.** With COC(=O)[C@@]1(Cc2ccc(F)cc2)[C@H]2c3cc(C(=O)N4CCCC4)n(Cc4c(CO)[nH]cc(C)c4=O)c3C[C@H]2CN1C(=O)c1ccccc1 as the molecule, how does the Potency read?
**A.** inconclusive: 39.8 µM [inhibitor, single point]

**Q.** How did the Potency turn out when CC1CC(=O)c2cnc(Nc3ccccc3)nc2C1 (stereo not given) was run?
**A.** inconclusive: 39.8 µM [inhibitor, single point]

**Q.** With Nc1cc(Cl)nc(N/N=C/c2c(O)ccc3ccccc23)n1 as the molecule, how does the Potency read?
**A.** inconclusive: 28.2 µM [inhibitor, single point]

**Q.** How did the “activity change, negative = inhibition” value turn out when c1ccc(CCNc2nc(-c3ccccn3)nc3ccccc23)cc1 was run?
**A.** inactive: 5.8%

**Q.** With CCCC1(C(=O)O)NC(c2ccc(OC)cc2O)C2C(=O)N(c3ccc(OC)cc3)C(=O)C21 (stereo not given) as the molecule, how does the Potency read?
**A.** inconclusive: 25.1 µM [inhibitor, single point]

**Q.** Which “activity change, negative = inhibition” value does the source give for COc1ccc2c(C)cc(SC3CCOC3=O)nc2c1 (stereo not given) here?
**A.** inactive: 4.66%

**Q.** With CCN(CC)c1ccc(C(=O)N/N=C(\C)c2cccc(OC)c2)cc1 as the molecule, how does the Potency read?
**A.** inconclusive: 35.5 µM [inhibitor, single point]

**Q.** For FC(F)(F)c1cccc(N2CCN(Cc3cccnc3)CC2)c1, which Potency is on record?
**A.** inconclusive: 28.2 µM [inhibitor, single point]

**Q.** With Cc1cccc(NC(=O)CN2C(=O)N/C(=C/c3cc(C)n(C)c3C)C2=O)c1 as the molecule, how does the Potency read?
**A.** active: 31.6 µM

**Q.** Which Potency does the source give for COc1ccc(-c2ccnc3ncnn23)cc1 here?
**A.** inconclusive: 28.2 µM [inhibitor, partial curve]

**Q.** For COc1ccc2c(c1)S(=O)(=O)c1ccccc1N2, which Potency is on record?
**A.** inconclusive: 35.5 µM [inhibitor, single point]

**Q.** With Cc1ccc(S(=O)(=O)Nc2ccc3c(c2)nc2n3CCN(Cc3ccccc3)C2)cc1 as the molecule, how does the Potency read?
**A.** inconclusive: 39.8 µM [inhibitor, single point]

**Q.** CC(C)Cc1nc(N2CCOCC2)c(C#N)c2c1COC(C)(C)C2 was tested. Which Potency did it give?
**A.** inconclusive: 25.1 µM [inhibitor, partial curve]

**Q.** O=C(COc1ccc2c3c(c(=O)oc2c1)CCC3)NC1CCCCC1 was tested. Which Potency did it give?
**A.** inconclusive: 0.794 µM [inhibitor, single point]

**Q.** Which Potency does the source give for NS(=O)(=O)c1ccc(Nc2nc(-c3ccc(O)cc3O)cs2)cc1 here?
**A.** inconclusive: 28.2 µM [inhibitor, single point]

**Q.** How did the Potency turn out when CC(C(=O)OCc1nnc(-c2ccccc2)o1)N1C(=O)C2CCCCC2C1=O (stereo not given) was run?
**A.** inconclusive: 39.8 µM [inhibitor, single point]

**Q.** For CN(C)c1ccc(-c2nn3c(C4CCCCC4)nnc3s2)cc1, which Potency is on record?
**A.** inconclusive: 7.08 µM [inhibitor, single point]

**Q.** With Cc1ccc(NC(=O)CSc2nc(C)c(Cc3ccccc3)c(=O)[nH]2)cc1 as the molecule, how does the “activity change, negative = inhibition” value read?
**A.** inactive: 6.18%

**Q.** Cc1[nH]c2c(ccc3ccccc32)c1C1C(CCN)C1(C)C (stereo not given) was tested. Which Potency did it give?
**A.** inconclusive: 28.2 µM [inhibitor, single point]

**Q.** CCOc1ccc(/C=N/NC(=O)c2cc(-c3ccco3)nc3ccccc23)cc1 was tested. Which Potency did it give?
**A.** inconclusive: 28.2 µM [inhibitor, partial curve]

**Q.** For COc1cccc(CSc2nc3cc4c(cc3cc2C)OCCO4)c1, which Potency is on record?
**A.** inconclusive: 39.8 µM [inhibitor, single point]

**Q.** For Nc1nnnn1/N=C/c1ccc(N2CCCCC2)c([N+](=O)[O-])c1, which “activity change, negative = inhibition” value is on record?
**A.** inactive: 1.55%

**Q.** For Cc1ccc(-c2nn(-c3ccccc3)cc2CN(Cc2ccccc2)C(=O)CCC(=O)O)o1, which Potency is on record?
**A.** inconclusive: 22.4 µM [inhibitor, partial curve]
